# According to the supplement of paper PMC3334620:
# Whole data set: some 33,000 sequences, median “E-score (-0.5 to 0.5)” near -0.013, cut for the highest 2% near 0.3. Some of the results follow.
# Biological target: T1, Msn1 (UniProt P22148)
# T1 sequence: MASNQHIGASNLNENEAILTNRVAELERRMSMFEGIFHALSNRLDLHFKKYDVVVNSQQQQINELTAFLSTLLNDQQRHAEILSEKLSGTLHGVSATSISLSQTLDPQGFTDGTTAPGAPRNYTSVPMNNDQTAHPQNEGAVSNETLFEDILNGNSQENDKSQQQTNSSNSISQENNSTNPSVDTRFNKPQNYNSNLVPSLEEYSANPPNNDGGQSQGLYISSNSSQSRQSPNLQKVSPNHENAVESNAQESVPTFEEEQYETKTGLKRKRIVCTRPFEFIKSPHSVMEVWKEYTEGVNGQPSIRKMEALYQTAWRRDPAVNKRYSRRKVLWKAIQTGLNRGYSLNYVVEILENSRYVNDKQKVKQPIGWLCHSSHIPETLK
# Test: PBM E-score (8-mer binding enrichment) (E-score (-0.5 to 0.5)); higher = stronger / more preferred TF binding; most listed sequences are background and not binding sites
# Conditions: protein concentration: 200 nM; construct: GST-full length
# Procedure, shortened: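 GST-tagged yeast TFs (full-length or DNA-binding domain) were made by PURExpress in vitro transcription/translation and applied at about 100-200 nM to universal all-10-mer Agilent arrays. The arrays were made double-stranded by primer extension, on fresh or once-stripped slides. Bound protein was detected with fluorescent anti-GST, and scans were normalised with masliner. Each ungapped eight-base word, pooled with its reverse complement, received an E-score (modified Wilcoxon-Mann-Whitney statistic) from the Universal PBM Analysis Suite.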
row,Sequence,PBM E-score
1,CGGTGGGA,-0.113
2,CACTCGCA,-0.0465
3,AAAACTCT,0.0335
4,ATAGGCCA,-0.0607
5,CACGGAGG,-0.0865
6,CAAGTATA,-0.0799
7,CATACGGG,-0.0153
8,AGCCGTCG,0.136
9,AGGGAAGA,0.0181
10,ACTGCGCG,-0.0443
11,AAATACTG,0.101
12,TTTAAAAA,0.106
13,GACTATTA,0.12
14,ATAACGAT,-0.192
15,AGGGAATC,-0.256
16,CATGTAGG,0.0217
17,ATGGATAA,0.0593
18,ATGGCAGC,-0.117
19,AGGAAAAC,-0.0136
20,CTCACTGC,-0.0256
21,ACGTGATG,-0.0245
22,ACCACGAA,0.03
23,GTGGACGA,0.18
24,AAACAGCG,0.00804
25,CTCTGTGA,0.126

row,Sequence,PBM E-score
1,CGTACCAA,0.182
2,AGGTGAGA,0.224
3,GGCTATTA,0.0244
4,CTAGTACA,0.308
5,AGCTTTCC,-0.198
6,AGAGCCGA,0.041
7,ATCCGAAC,-0.00081
8,GATTGTCA,0.245
9,ATAACCCA,-0.0169
10,CCGTTGGA,-0.0378
11,AGAGAGAG,-0.239
12,AACCTAGC,-0.144
13,CAATTCCC,0.0597
14,CATTGCAC,0.0641
15,TGCGTCAA,-0.0491
16,TCCGACGA,0.172
17,ACATTAAT,0.155
18,CTTCAATC,-0.0501
19,CGGAGGGC,-0.38
20,ACCCTCGA,-0.189
21,AAAATGAC,0.179
22,AGAACCCT,-0.199
23,CAAATAGA,0.231
24,CTCCTAGA,-0.0389
25,AGCTGTTA,-0.0398

row,Sequence,PBM E-score
1,GTACAAGA,0.272
2,AAGCTGTA,0.0383
3,ATTGAGCA,0.0739
4,ACATGACT,-0.0227
5,CGCAGTCA,-0.301
6,ACCTGTGG,-0.223
7,CTATTGCA,-0.11
8,ACCGTCGC,-0.0915
9,ACGCATAC,0.147
10,CGCTGGAC,0.00307
11,AGTTTCAC,-0.0676
12,CAGTTCCC,-0.0791
13,CAGTTGGG,-0.0934
14,ATAATCGA,0.0323
15,ACTTCCGC,0.0454
16,AGAGTGGG,-0.203
17,CTCAGGAG,-0.11
18,ACGGCTGC,-0.0997
19,CACCAGTG,-0.184
20,CCATCGAA,-0.115
21,CAGACTAG,-0.151
22,CCTTATCG,-0.0629
23,GCTTCGCC,-0.218
24,AGGTACGC,-0.11
25,AGCCGAAT,0.00249

row,Sequence,PBM E-score
1,ACGTATTC,0.0104
2,AACGCTGG,-0.113
3,GGCCCCAA,-0.187
4,CGCTAGGC,-0.174
5,CATATCAA,0.133
6,AAGATAGA,-0.00373
7,CAGGTATA,-0.0449
8,ACCAGCTG,0.116
9,ACTTGCGG,-0.0312
10,TACGTACA,0.186
11,AAGTCAGG,-0.0755
12,CTTGACGC,-0.167
13,TCCCCTAA,-0.0701
14,TCGCAAGA,-0.177
15,ACTGCTGC,-0.142
16,GTCGGAGA,0.0165
17,ATCCAGAG,-0.093
18,GTGCAAAA,0.0202
19,AGTCAGCG,-0.206
20,GAACCACC,-0.0388
21,CCATAGGA,0.0587
22,TCCAGGAA,-0.122
23,AAATTCAG,0.0993
24,CACCCAAA,0.0602
25,CTGCGTAA,-0.00214

row,Sequence,PBM E-score
1,ACCAATAA,-0.0367
2,CTTTTGCA,0.123
3,AGATGCAT,-0.0339
4,CAACTCAG,-0.018
5,GGATATTA,0.0953
6,ACCTTACG,0.0554
7,AGGAGACC,-0.235
8,GCAGCCCC,-0.121
9,ATGGCGCG,0.0293
10,CGTGTGCC,-0.137
11,CCGTGCGC,-0.0113
12,ATGGCTAG,0.0388
13,ATAGCTTA,0.0113
14,AACGTCGG,0.0133
15,CATGATGC,0.0676
16,GGTAAGAA,-0.0516
17,ATCCTCTA,-0.163
18,TCGACAAA,0.378
19,GCTAGCCC,-0.345
20,ATTTTCAG,0.162
21,ATTCGTAG,-0.0809
22,CACGCGGG,-0.0875
23,CGAGGCTC,-0.105
24,GTAAACCA,0.0125
25,CTAGCGGA,-0.154

row,Sequence,PBM E-score
1,CTCCCCAC,-0.256
2,AGTAATGC,-0.0808
3,AACCGAGA,0.22
4,AACTCGTA,0.0507
5,CGCTCTGC,-0.112
6,ATTTCCTC,0.0595
7,CATAGCGG,-0.189
8,GCCGCGGC,0.106
9,AACGCACA,0.0119
10,ATCATGGA,-0.0629
11,AAGTTTGC,0.0417
12,CGAGAAAG,0.0577
13,CGAGCAGA,-0.0524
14,GCGACCGA,0.132
15,AACTTCCC,-0.0261
16,AATGGAGC,-0.132
17,GGTCCGAC,0.0201
18,GGGTTAAA,-0.105
19,CTTCTGTA,0.147
20,CAGTTTCG,-0.0339
21,CCTCCCCG,-0.0812
22,TAACCGCA,0.0556
23,AGGAATTA,0.195
24,CGATCAAA,0.0324
25,ATCGATCC,-0.162

row,Sequence,PBM E-score
1,CATGCGCG,0.11
2,ATGCTTGG,-0.0374
3,CTACGAGA,-0.0692
4,AGAAGAGA,-0.153
5,ATTTTTCA,0.0848
6,AAGAAGTC,0.102
7,CTGTGGGA,-0.0877
8,CAAATACA,0.094
9,GCGATAGC,-0.194
10,TAGAGAAA,0.0253
11,CTAATTTC,0.183
12,CACACGGG,0.00643
13,AAGCAAAA,0.165
14,GCTTCATA,0.0223
15,CCGCCCCC,-0.353
16,CAGCTCCA,-0.122
17,AATACAAG,0.134
18,CTCGAAAC,0.0861
19,CAAACAGG,0.111
20,CAGCGGGC,-0.075
21,AAAAACTT,0.0862
22,AATCATGA,0.247
